According to the RNAGym collection of RNA variant scans (doi:10.7554/elife.90254):
The source gives no read counts; variants with many changes may rest on few reads.

B1: OR4K15 (parent)
chain: GUUAACGGUCAUAGGCCAUGGAAACUAGGAGCACCAUUUCGCUGCCAGUGAAGAAAUGAACAAAGAAAAUCUGGGCCAGGCAGGCAUCAAAAGAAAUAGUCUUGCGCUCAACCAGAAAGUCUGUAAUCAUUUUAAGGGUA

Variants of: B1
Assay: self-cleavage, relative activity (ratio to wild type); higher = more cleavage; in vitro, sequencing; the parent is a self-cleaving ribozyme
Work on U39C A66G A94G yielded a self-cleavage of 1.64. Work on A47G A64G A82G C109A yielded a self-cleavage of 0.09. For A5G U38C A62G, the self-cleavage was 0.77. In the case of A27C A82G A135G, the self-cleavage is reported as 0.65. Variant U49A U108C U120C has a self-cleavage of 0. In the case of A18G A52U U127A, the self-cleavage is reported as 2.71. A22G A90G A111G U122A showed a self-cleavage of 0. A95G U102C U130C showed a self-cleavage of 2.43. Variant U39A A67G A96G has a self-cleavage of 1.98. With A47G A68G A69G the self-cleavage was 0.88. Variant G28A A33U A118U U131C has a self-cleavage of 0.29. A59G A91G U133A gave a self-cleavage of 0.53. A24G A66G A67U U122C showed a self-cleavage of 1.51. For U38C A52G U72A, the self-cleavage was 0.44. Variant A47U G73A A82G A125G has a self-cleavage of 0.04. U2C U39C U103C gave a self-cleavage of 1.06. With A55G U103A A140U the self-cleavage was 0.62. In the case of U2C U108A A117G U133A, the self-cleavage is reported as 0.01. Variant U70C U100C A118U has a self-cleavage of 1. A51G A91G A96G gave a self-cleavage of 0.96. Work on C25U A68G A117G yielded a self-cleavage of 2.31. Work on C45U A52U U72C U87C yielded a self-cleavage of 0.97. Variant U12C U87C U130G A140G has a self-cleavage of 2. With A18G U43C A118U the self-cleavage was 0.7. A92G U103C U108C A116G A118G showed a self-cleavage of 0. A78G A82U U132C showed a self-cleavage of 0.11. Variant A47U A90G U120C has a self-cleavage of 0.28. U43C A125G A134G gave a self-cleavage of 0.58. For A33C A67G U130C, the self-cleavage was 1.15. Work on A23G U49C A125U yielded a self-cleavage of 1.09. U19C A51G A78G gave a self-cleavage of 0.23. With U26C A96G U122C the self-cleavage was 2.05. A23G U70C G80A A92G showed a self-cleavage of 0.13. With U2C A92G A117U the self-cleavage was 0.19. U122A A125G A135U gave a self-cleavage of 1.03. G7C C42A A52G showed a self-cleavage of 1.25. In the case of G8A A30G U49A, the self-cleavage is reported as 2.02. Work on U38G A110G A117G yielded a self-cleavage of 0.2. A56G A64G A68G A86C U97C U103C A126G showed a self-cleavage of 0.12. With A78U C107G A116G C128A the self-cleavage was 0.03. A54G U103C C112U showed a self-cleavage of 0.02. For A5G A117U U132C, the self-cleavage was 0.31. U37C A51G A66G C128U gave a self-cleavage of 0.65. U38C A59G U120C gave a self-cleavage of 0.26. For A24C A91G A96G U108C, the self-cleavage was 0. For U9G U43C A67G, the self-cleavage was 0.84. In the case of U9C A60G A82G U120C A126C, the self-cleavage is reported as 0.18. Work on U37C U43C U131C yielded a self-cleavage of 1.88. A47U A68G A86G U87A U124C gave a self-cleavage of 0.26. In the case of A23G U39A U87C U130C, the self-cleavage is reported as 0.79. With A13U U43C A96U the self-cleavage was 2.14. A5G U43G A51G showed a self-cleavage of 1.07. Variant A59G A89U U108A has a self-cleavage of 0.02. Work on A22G A60G U72G A116G U120A yielded a self-cleavage of 0.06. With U2A A67G A90G the self-cleavage was 1.23. Work on A86G A110G U127C yielded a self-cleavage of 0.09. Variant C34U A62C U72A A82U A134G has a self-cleavage of 0. C25A A36G U97C U130G gave a self-cleavage of 0.25. In the case of A64C A86G A129G U131C, the self-cleavage is reported as 0.87. A68C A116G U131C gave a self-cleavage of 0.43. Work on A5G C42A A55G U57C A69G A96G yielded a self-cleavage of 0.57. Work on A64C A68G U122A U130C yielded a self-cleavage of 0.55. With U26A A67G U87C G138A the self-cleavage was 0.85. With A56G A68G U102C U131C the self-cleavage was 1.71. Variant A24U A118U A126G has a self-cleavage of 0.49. A59G A63C A118C showed a self-cleavage of 0.94. Variant A51G A59U C88A A116U has a self-cleavage of 0.1. Work on A33U U72C A95G U127C yielded a self-cleavage of 0.22. With C61U U120C G123A the self-cleavage was 1.59. With A69G G75C A78U U108C U131C the self-cleavage was 0. For A67G U102A U108A, the self-cleavage was 0.01. In the case of G31C U57C A86G A111U U131C, the self-cleavage is reported as 0.02. U37C A62C A64G gave a self-cleavage of 0.74. In the case of U9C U38C A95G, the self-cleavage is reported as 2.32. For U2C A23G A52G, the self-cleavage was 1.64. A56G A96G U127A U131C showed a self-cleavage of 2.54. Work on A18G A27G U49C U103C U132C yielded a self-cleavage of 0.42. In the case of A30G A111U A129G, the self-cleavage is reported as 0.06. A51C A67G U70A showed a self-cleavage of 1.34. Work on U9C U39A U72C U130C yielded a self-cleavage of 0.6. Variant U39C A52G A64G U108C has a self-cleavage of 0.02. In the case of A55G U72C A86G A95G A135U, the self-cleavage is reported as 0.09. U49A A67G G74A A96G G106C U131C A134G showed a self-cleavage of 0.01. For A33U U39A A51G U124C A125G, the self-cleavage was 1.01. Work on U72C A95G A116G U131C yielded a self-cleavage of 0.09. Variant U26A A67G U72A A96G U108C has a self-cleavage of 0.01. For C16U A47G U102A U122C, the self-cleavage was 0.32. In the case of U43A A68U A98G A114U A135G, the self-cleavage is reported as 0. Work on A5G U38C A78U yielded a self-cleavage of 0.15. Work on G15A A36U A95G A116G U131C yielded a self-cleavage of 0.78. A33U A78G A94G U108A C113A A114G gave a self-cleavage of 0.01. Work on U37C A47G A69G U100C yielded a self-cleavage of 1.78. A63U A82G A96G A118G U120C U132C gave a self-cleavage of 0.11. U12A A33G A129U showed a self-cleavage of 0.19. Variant U19C A23G A69U C105U has a self-cleavage of 0.73. Variant A68G A96G U103C A117G U133C has a self-cleavage of 1.47. Work on A33G U120C A134G yielded a self-cleavage of 0.37. Variant A62G U97C A140G has a self-cleavage of 1.62. A67G G80A U108A showed a self-cleavage of 0.02. A22G A63G A89G showed a self-cleavage of 0.71. U2A A36U U37C A66G gave a self-cleavage of 0.49. For U108C U120C U130C, the self-cleavage was 0. In the case of A91U A96G G104A, the self-cleavage is reported as 0.04. A5G C16U A78G A111G showed a self-cleavage of 0.06. In the case of A27G U39C G79A, the self-cleavage is reported as 0.12. In the case of A13G G41A U57C A91G U122C U127C, the self-cleavage is reported as 0.28. A23G C85A A89C A90G U102C A116C showed a self-cleavage of 0.3. In the case of A24G U37C U72A A82G A86U A95G A140G, the self-cleavage is reported as 0.16. A52G A56G A68G showed a self-cleavage of 0.71. For A24G U103C U124A, the self-cleavage was 0.45. With A11G A24G A30U U122C the self-cleavage was 0.64. A47G U72A A118U showed a self-cleavage of 0.08. For U38C A47U A86C A111U, the self-cleavage was 0.03. G21A A47G A55G A67G U100C gave a self-cleavage of 0.37. With U37C U108C U122C the self-cleavage was 0.01. U9C A59G U72A showed a self-cleavage of 0.27. Work on A90G A92G U108C yielded a self-cleavage of 0.01. In the case of G7A U39A A68G A86G A110G, the self-cleavage is reported as 0.15. A33G A63G U102C gave a self-cleavage of 1.73. With A54G A56G U108G A118G the self-cleavage was 0.06. For A47C A62U U102C U130C, the self-cleavage was 1.17. Work on G50U A111G A117G yielded a self-cleavage of 0.01. C6U A69G A135G showed a self-cleavage of 0.87. A11C A91G U100C U102C C121A A129U showed a self-cleavage of 2.9. G31U A82U A92G gave a self-cleavage of 0.45. For A55U U87C A89G U100C, the self-cleavage was 2.3. A62U U87C U127C gave a self-cleavage of 0.91. In the case of A114C U127C U130C A134G, the self-cleavage is reported as 0. Work on A86U U102C A125G yielded a self-cleavage of 1.15. Variant A54G A59U C76A G138A has a self-cleavage of 0.09. For A18U A22G U108C, the self-cleavage was 0.05. For A69G U87C U102A, the self-cleavage was 0.69. Work on A30G A69C A89G U108A yielded a self-cleavage of 0.03. For A11G A24C U49C A92G A111G A126G, the self-cleavage was 0.01. U57C A92G A96U U102C U131C showed a self-cleavage of 2.15. With U37C A78G A92U U108C the self-cleavage was 0.04. With G1A A54G A59G A78C the self-cleavage was 0.49. In the case of A24G A27G U43A A52G A66G U72A, the self-cleavage is reported as 0.48. With A33G A68G C85G A94G the self-cleavage was 0.2. Work on U9C U37C A98C yielded a self-cleavage of 1.58. For A59G U132C A140G, the self-cleavage was 1.31. With U19C A110G U120C the self-cleavage was 0.04. U37C A63G U72A A91G A94G A117G gave a self-cleavage of 0.18. G7A A51U U70C U122C gave a self-cleavage of 1.2. With A5G U43C A55U the self-cleavage was 0.18. In the case of A60G C81U A118G, the self-cleavage is reported as 0.13. With G29U A54G A96G the self-cleavage was 1.93. A22U A33G U72A A92U A117G A140G gave a self-cleavage of 0.11. With A66G A118G U122C the self-cleavage was 1.23. A36U A86G U100A A114C gave a self-cleavage of 0.02. In the case of A60G A78U U100C, the self-cleavage is reported as 0.78. For U2C A24U A52G A59G A98G, the self-cleavage was 0.83. For U19C A91G A111G, the self-cleavage was 0.02. U9A A33G A47G U49C showed a self-cleavage of 0.36. With A62C C85A A114U A125G the self-cleavage was 0. Work on U70A A92G A116G U139C yielded a self-cleavage of 0.17. U9G A11G U19C C46U showed a self-cleavage of 0.89. Variant A36G A91G A92G A110G has a self-cleavage of 0.08. Variant A56G A90G U124C U132C has a self-cleavage of 0.88. In the case of A54G U108C A125G A129G, the self-cleavage is reported as 0. A33U U70A A125G gave a self-cleavage of 0.68. Variant A56G A82G A126G has a self-cleavage of 0.33. A11U U100A A110U showed a self-cleavage of 0.85. A33G U57A U122C showed a self-cleavage of 0.96. A18G U38C A47C U131C showed a self-cleavage of 0.48. For A51G A52G A67U U108C, the self-cleavage was 0.06. Work on U49A A64U U100C A114G yielded a self-cleavage of 0.71.
